The BET-seq Pho4 binding data (Le et al. 2018)
The other results are listed elsewhere or left out. The energies were worked out here from pooled read counts, against the library average; single values are noisy.

molecular target: T1, Pho4 (S. cerevisiae) (UniProt P07270); experiment: relative binding free energy (BET-seq); higher = weaker binding; settings: reference: library average
T1 sequence: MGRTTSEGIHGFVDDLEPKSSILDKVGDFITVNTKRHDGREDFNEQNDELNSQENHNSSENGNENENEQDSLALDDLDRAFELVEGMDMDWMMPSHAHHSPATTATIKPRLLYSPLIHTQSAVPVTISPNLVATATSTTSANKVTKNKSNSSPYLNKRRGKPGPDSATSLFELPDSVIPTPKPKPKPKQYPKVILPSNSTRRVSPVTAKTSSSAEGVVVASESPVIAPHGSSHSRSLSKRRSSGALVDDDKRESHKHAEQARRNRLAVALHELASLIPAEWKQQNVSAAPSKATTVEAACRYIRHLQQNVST

Row | Sequence | relative binding free energy [kcal/mol]
1 | TTTTACACGTGAAGAT | 0.36
2 | GTAAGCACGTGGGAGC | -0.05
3 | TGTGTCACGTGGGGGG | -0.05
4 | CGATTCACGTGATTTT | 0.29
5 | GTGCGCACGTGGTGAG | -0.03
6 | TAAATCACGTGGAGTG | 0.12
7 | GTCGGCACGTGAAAGT | 0.18
8 | TGGCGCACGTGTGGAC | 0.01
9 | TGGGTCACGTGTCAGG | 0.19
10 | GTCGTCACGTGATTGT | 0.22
11 | ATGGGCACGTGTGATA | -0.07
12 | GGGGCCACGTGGAGCG | -0.06
13 | TTTGGCACGTGATCTG | -0.05
14 | TCGCACACGTGTGGGT | 0.05
15 | ATATTCACGTGATGGA | 0.36
16 | TGACGCACGTGGGGTT | -0.22
17 | TTTATCACGTGCTAGT | 0.1
18 | CGTGTCACGTGTCGGG | 0.12
19 | GTCGGCACGTGTCGTT | 0
20 | GTATGCACGTGAGTTT | 0.25
21 | TTGATCACGTGGGTAA | 0.05
22 | AATAGCACGTGTCTGT | -0.02
23 | TGTGACACGTGGAGGG | -0.01
24 | GTACGCACGTGGTCGG | -0.17
25 | AGCCGCACGTGGTTGT | -0.08

Row | Sequence | relative binding free energy [kcal/mol]
26 | GTAGGCACGTGGGATT | -0.12
27 | TATGCCACGTGGGTGA | -0.12
28 | GTGTGCACGTGTTAGC | -0.01
29 | TGTGTCACGTGGTCTC | 0.11
30 | CTTTTCACGTGTAGAG | 0.23
31 | TGTAGCACGTGCGGTG | -0.16
32 | GGGCTCACGTGGTGAG | 0.2
33 | TGGCGCACGTGCAGGT | -0.04
34 | GAGGGCACGTGGGTTC | -0.18
35 | CGGTGCACGTGAGTGA | 0.23
36 | GGTGCCACGTGGGCAT | -0.13
37 | TTAGACACGTGTGGGT | 0.02
38 | TAATGCACGTGATTGA | 0.17
39 | ATTGTCACGTGATGTT | 0.27
40 | TGATTCACGTGTTTAC | 0.27
41 | ATTTGCACGTGAGGCA | 0.26
42 | TAAGGCACGTGACTGG | -0.01
43 | TGGAGCACGTGGGTCA | -0.24
44 | AGAATCACGTGTGTTC | 0.25
45 | ATATGCACGTGTGATT | 0.04
46 | TGTGTCACGTGTATAT | 0.17
47 | AAGTGCACGTGCGGAG | -0.09
48 | TCAGGCACGTGTGGAA | -0.1
49 | AAATTCACGTGGATGA | 0.35
50 | TGGCGCACGTGGGTGT | -0.3

Row | Sequence | relative binding free energy [kcal/mol]
51 | CAGGGCACGTGGGTTA | -0.17
52 | TGTTTCACGTGGGATC | 0.19
53 | CGTAGCACGTGGTTGA | -0.01
54 | TAGCACACGTGTGAGT | 0.19
55 | AAGGTCACGTGCTAGT | 0.03
56 | TGTGTCACGTGTGACG | 0.01
57 | TTGTACACGTGAGTTA | 0.39
58 | AATTTCACGTGTTTAC | 0.19
59 | ATTGGCACGTGTTTTG | 0
60 | TTAAACACGTGGGGGG | -0.12
61 | ATTGTCACGTGGAGAT | -0.02
62 | CGTTTCACGTGTAAAG | 0.41
63 | TTTTACACGTGAACTG | 0.39
64 | GATGTCACGTGACTGG | 0.32
65 | CATGGCACGTGATGGA | 0.09
66 | TTTTTCACGTGGGGCA | 0.18
67 | GATTACACGTGTCGTT | 0.09
68 | GGAGGCACGTGGAAGC | 0.12
69 | GTGGACACGTGGTAAT | -0.02
70 | TTTGCCACGTGGGGTT | -0.09
71 | TAGGGCACGTGGGATA | -0.13
72 | TGCATCACGTGGGAAG | 0.09
73 | ATTTACACGTGCGAGT | 0.14
74 | CTGAACACGTGTGTGT | -0.04
75 | GGGATCACGTGATAAT | 0.42

Row | Sequence | relative binding free energy [kcal/mol]
76 | ATTAGCACGTGGTAGC | -0.18
77 | ATGGACACGTGGGATA | 0
78 | ACTTGCACGTGTTAGT | -0.13
79 | GTTTCCACGTGATTGT | 0.16
80 | AGTATCACGTGGCTAG | 0.05
81 | ATGGTCACGTGAGCAT | 0.16
82 | TATGTCACGTGCTTAT | 0.04
83 | TTTGTCACGTGACGTG | 0.2
84 | ATAGTCACGTGTAGTC | 0.07
85 | GTGGGCACGTGGGCGT | -0.11
86 | TAGGGCACGTGTAGTC | -0.08
87 | CTCGGCACGTGCGGGT | -0.19
88 | TTACGCACGTGGTTTG | -0.09
89 | TTTTGCACGTGGTTCA | -0.01
90 | ATATGCACGTGGTATT | -0.02
91 | TGGAGCACGTGGGCTG | -0.39
92 | TTTGGCACGTGTATTG | -0.04
93 | ATGGGCACGTGTCGTT | -0.13
94 | GTTTCCACGTGGGGGG | 0.04
95 | TGTACCACGTGTTGAT | -0.21
96 | TATTCCACGTGGTGCT | 0.06
97 | TTATGCACGTGATTGT | 0.13
98 | TTAGCCACGTGTGTAG | -0.17
99 | ATGTACACGTGGCCGG | 0.01
100 | TGTGCCACGTGTTCTT | -0.12

Row | Sequence | relative binding free energy [kcal/mol]
101 | GGGGCCACGTGGGTTT | -0.09
102 | GTGGGCACGTGTCGGT | -0.06
103 | GTCGGCACGTGTGTAG | 0.02
104 | CGGCTCACGTGGGTTG | 0.08
105 | AGTTACACGTGTGTTT | 0.15
106 | TCAGTCACGTGGGTAA | -0.15
107 | ATAGGCACGTGTGGGA | -0.04
108 | GGTTCCACGTGTTGTA | 0.12
109 | GGCTGCACGTGGTAAT | 0.04
110 | GGAGCCACGTGGTGGA | -0.09
111 | TGCTGCACGTGGCGTG | -0.12
112 | CTGGTCACGTGTGAAA | 0.22
113 | GTATTCACGTGATGTT | 0.31
114 | CTTATCACGTGTTGTC | 0.17
115 | TATACCACGTGTGTTG | -0.13
116 | AGCGGCACGTGTGTTT | 0
117 | AAGGGCACGTGGGGTA | -0.29
118 | ATATGCACGTGTACGG | 0.15
119 | GGGTACACGTGGTCTG | -0.03
120 | ATAGCCACGTGGGTGG | -0.16
121 | TGTTACACGTGAGGGA | 0.28
122 | ATGTGCACGTGCTAGT | -0.22
123 | CATGACACGTGGGGTT | -0.01
124 | GTGAACACGTGGGTGA | -0.06
125 | CAGGACACGTGTGGTA | 0.07

Row | Sequence | relative binding free energy [kcal/mol]
126 | GGGGCCACGTGGTAAA | -0.02
127 | AAGTTCACGTGGTAGA | 0.31
128 | CTTATCACGTGTTTTG | 0.01
129 | CATGCCACGTGGGGGG | -0.4
130 | TTGTGCACGTGAGATG | 0.36
131 | TTATACACGTGTTGAT | -0.03
132 | CTTGACACGTGGTGTT | -0.14
133 | AAAGGCACGTGGAGTA | -0.25
134 | TCATTCACGTGTTTGT | 0.24
135 | GGGAGCACGTGGGCTC | -0.09
136 | GTGATCACGTGGTCCG | 0.24
137 | GGTAGCACGTGAGATT | 0.32
138 | TGGGCCACGTGTAATA | 0.2
139 | TTGGGCACGTGTCGGG | 0
140 | GTGTACACGTGTTGAA | 0.1
141 | ATGGTCACGTGCGATG | 0.22
142 | ATGATCACGTGTTAGA | 0.09
143 | TGTTTCACGTGTGGTG | 0.33
144 | TTGTACACGTGTAGTG | 0.09
145 | GGGAACACGTGTCAGT | 0.07
146 | GATGGCACGTGTTAAT | 0.02
